# Source: PubChem BioAssay (Tox21)
# Inconclusive results, whose numbers are uncertain, are shown with a selection of clear calls. For some assays here: Where the call is inconclusive, the potency comes from a doubtful curve fit. The source made the active and inactive calls. Unless noted, the call rests on the fitted dose curve; in most records, active means well fitted curve in the direction sought with a large enough effect in the repeat runs; inconclusive means weak or mixed curves; inactive means no such curve, though single readings can be large; an effect the other way counts as inactive or inconclusive.
# Key:
# [1] = qHTS assay to identify small molecule antagonists of the estrogen receptor alpha (ER-alpha) signaling pathway using the BG1 cell line - cell viability counter screen (AID 743081); settings: BG1Luc4E2 viability, CellTiter-Fluor, 22 h; activity change, negative = cytotoxicity: at 70.3 µM (top of the series);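 further: compound given together with 17beta-estradiol as the ER stimulus; nearly all actives have a fitted effect of over 45% in size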; further: potency means the concentration at half of the fitted maximal effect; on activity change, negative = cytotoxicity: on the % scale 0 is the no-effect control and ±100 the full control effect
# [2] = qHTS RealTime-Glo MT Cell Viability Assay in HEK293 cells - 16 hour (AID 1224872); further: nearly all actives have a fitted effect of over 50% in size; further: potency means the concentration at half of the fitted maximal effect
# In short: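 Tox21 10K qHTS, HEK293, 600 cells/well, RealTime-Glo reagent co-dispensed with cells; 5 h preincubation, compound by pintool, 37 C, luminescence at 0–40 h.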
# [3] = qHTS RealTime-Glo MT Cell Viability Assay in HEK293 cells - 40 hour (AID 1224874); settings: RealTime-Glo luminescence; max response: active compounds read low; further: nearly all actives have a fitted effect of over 50% in size; further: potency means the concentration at half of the fitted maximal effect
# In short: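 Kinetic, non-lysing viability readout. Seed HEK293 (600/well) with reagent, incubate 5 h at 37 C/5% CO2, pin 23 nL compound in DMSO, incubate at 37 C, read luminescence at 0, 8, 16, 24, 32, 40 h.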
# [4] = biological target: Voltage-gated inwardly rectifying potassium channel KCNH2 (Homo sapiens) (UniProt Q12809); assay: Human Ether-a-go-go-Related Gene (hERG) channel small molecule antagonists: fluorescence cell-based qHTS assay (AID 1671200); further: potency means the concentration at half of the fitted maximal effect; nearly all actives have a fitted effect of over 50% in size
# UniProt Q12809, sequence (Q12809 whole entry, looked up): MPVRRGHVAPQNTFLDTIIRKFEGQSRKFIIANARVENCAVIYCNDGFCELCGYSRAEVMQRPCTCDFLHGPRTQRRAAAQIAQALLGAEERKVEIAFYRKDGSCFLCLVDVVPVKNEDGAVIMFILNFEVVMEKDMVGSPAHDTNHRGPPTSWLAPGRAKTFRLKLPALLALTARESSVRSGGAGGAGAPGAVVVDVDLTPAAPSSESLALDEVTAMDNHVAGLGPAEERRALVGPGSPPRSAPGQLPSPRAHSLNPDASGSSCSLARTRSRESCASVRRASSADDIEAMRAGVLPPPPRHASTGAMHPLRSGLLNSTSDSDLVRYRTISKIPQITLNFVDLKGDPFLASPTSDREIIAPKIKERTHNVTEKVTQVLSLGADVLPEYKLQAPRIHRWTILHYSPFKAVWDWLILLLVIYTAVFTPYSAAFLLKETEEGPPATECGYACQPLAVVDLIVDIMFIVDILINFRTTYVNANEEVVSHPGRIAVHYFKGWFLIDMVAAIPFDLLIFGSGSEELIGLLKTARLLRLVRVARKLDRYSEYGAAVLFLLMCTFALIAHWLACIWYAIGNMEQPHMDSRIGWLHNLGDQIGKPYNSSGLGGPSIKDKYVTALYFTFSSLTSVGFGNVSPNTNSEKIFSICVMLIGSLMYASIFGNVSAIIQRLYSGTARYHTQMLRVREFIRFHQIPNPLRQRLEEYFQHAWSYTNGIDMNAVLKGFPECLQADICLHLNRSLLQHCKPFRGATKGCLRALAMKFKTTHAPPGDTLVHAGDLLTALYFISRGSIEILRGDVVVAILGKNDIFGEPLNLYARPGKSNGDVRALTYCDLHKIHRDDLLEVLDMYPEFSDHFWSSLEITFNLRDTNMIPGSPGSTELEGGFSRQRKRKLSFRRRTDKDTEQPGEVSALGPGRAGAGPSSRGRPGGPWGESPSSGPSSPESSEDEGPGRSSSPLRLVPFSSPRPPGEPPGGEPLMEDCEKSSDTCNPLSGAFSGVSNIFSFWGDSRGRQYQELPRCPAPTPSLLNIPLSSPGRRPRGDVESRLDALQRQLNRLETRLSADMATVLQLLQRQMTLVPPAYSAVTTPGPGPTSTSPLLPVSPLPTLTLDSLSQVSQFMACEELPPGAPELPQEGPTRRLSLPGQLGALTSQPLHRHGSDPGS
# In short: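 Thallium served as the potassium surrogate; its influx into dye-loaded U2OS cells carrying the channel was measured by fluorescence over 2 min.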
# [5] = qHTS assay for small molecule agonists of the p53 signaling pathway (AID 651631; calls by dose curve; further: nearly all actives have a fitted effect of over 15% in size; further: potency means the concentration at half of the fitted maximal effect; on activation: on the % scale 0 is the no-effect control and ±100 the full control effect); settings: HCT-116 p53RE-bla reporter, beta-lactamase FRET ratio, 16 h; activation: at 73.3 µM (top of the series) unless noted
# In short: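 Testing took place in human colorectal HCT-116 cells with stable p53RE-driven beta-lactamase. After 16 h of compound exposure at 37 °C, a FRET substrate was added and fluorescence recorded 2 h later.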
# [6] = biological target: Thyrotropin receptor (Homo sapiens) (UniProt P16473); assay: qHTS assay to identify small molecule antagonists of the thyroid stimulating hormone receptor (TSHR) signaling pathway (AID 1259385; calls by dose curve; further: nearly all actives have a fitted effect of over 20% in size; further: potency means the concentration at half of the fitted maximal effect); settings: TSHR-HEK293 cAMP HTRF, TSH-stimulated antagonist mode; activity change, negative = inhibition: at 92.4 µM (top of the series)
# UniProt P16473, sequence (P16473 whole entry, looked up): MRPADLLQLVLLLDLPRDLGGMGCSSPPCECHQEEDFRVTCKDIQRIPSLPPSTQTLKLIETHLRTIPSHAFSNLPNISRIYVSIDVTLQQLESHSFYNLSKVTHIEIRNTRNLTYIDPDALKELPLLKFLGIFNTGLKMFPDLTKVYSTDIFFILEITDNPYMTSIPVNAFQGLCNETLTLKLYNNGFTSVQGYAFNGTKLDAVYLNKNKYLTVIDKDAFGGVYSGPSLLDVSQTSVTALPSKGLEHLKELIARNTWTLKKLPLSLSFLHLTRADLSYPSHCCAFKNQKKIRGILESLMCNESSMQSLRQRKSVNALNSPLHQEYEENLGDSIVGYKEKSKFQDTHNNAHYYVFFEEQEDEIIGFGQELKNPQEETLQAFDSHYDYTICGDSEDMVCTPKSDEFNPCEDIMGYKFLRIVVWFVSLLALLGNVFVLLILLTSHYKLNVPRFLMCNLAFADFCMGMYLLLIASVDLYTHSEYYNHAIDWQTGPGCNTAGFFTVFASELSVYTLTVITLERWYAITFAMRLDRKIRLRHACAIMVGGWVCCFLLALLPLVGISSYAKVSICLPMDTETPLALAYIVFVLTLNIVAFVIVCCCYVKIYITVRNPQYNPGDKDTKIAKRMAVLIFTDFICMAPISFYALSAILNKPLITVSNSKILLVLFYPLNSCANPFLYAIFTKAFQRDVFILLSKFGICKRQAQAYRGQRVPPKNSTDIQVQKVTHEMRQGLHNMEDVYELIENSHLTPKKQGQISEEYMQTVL
# In short: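 Antagonist mode: compound-treated TSHR-expressing HEK293 cells were stimulated with 1.5 ng/mL TSH (final) in presence of Ro20-1724 for 30 min at RT. HTRF cAMP detection after 1 h; each compound tested at 15 concentrations, triplicate.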
# [7] = qHTS assay to identify small molecule agonists of the sonic hedgehog signaling (Shh) pathway - cell viability counter screen (AID 1259366); further: nearly all actives have a fitted effect of over 50% in size; further: potency means the concentration at half of the fitted maximal effect
# In short: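 Compounds in DMSO were pin-transferred onto 3T3 Gli1-Luc cells that had settled 4hr; plates then stood 24hr at 37C and 5% CO2. One hour before the end, CellTiter-Fluor was added and fluorescence recorded.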
# [8] = biological target: Nuclear receptor subfamily 1 group I member 2 (Homo sapiens) (UniProt O75469); assay: Human pregnane X receptor (PXR) small molecule agonists, qHTS assay (AID 1346982); further: nearly all actives have a fitted effect of over 35% in size; further: potency means the concentration at half of the fitted maximal effect
# UniProt O75469, sequence (O75469 whole entry, looked up): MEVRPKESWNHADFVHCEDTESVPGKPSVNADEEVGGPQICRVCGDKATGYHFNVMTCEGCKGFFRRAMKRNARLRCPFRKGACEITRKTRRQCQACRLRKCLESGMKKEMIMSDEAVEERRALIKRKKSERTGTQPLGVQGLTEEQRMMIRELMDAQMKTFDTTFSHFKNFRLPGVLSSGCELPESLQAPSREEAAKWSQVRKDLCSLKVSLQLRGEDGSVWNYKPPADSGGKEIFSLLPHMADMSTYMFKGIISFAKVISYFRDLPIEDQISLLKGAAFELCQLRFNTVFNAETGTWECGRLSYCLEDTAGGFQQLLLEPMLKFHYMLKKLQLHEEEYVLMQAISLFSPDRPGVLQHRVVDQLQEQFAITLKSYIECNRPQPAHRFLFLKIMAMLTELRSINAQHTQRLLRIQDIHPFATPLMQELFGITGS
# In short: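 Tox21 qHTS; PXR-Luc HepG2; compounds pinned from DMSO; 24 hr, 37 C; ONE-Glo luciferase detection, 30 min room temperature.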
# [9] = biological target: Acetylcholinesterase (Homo sapiens) (UniProt P22303); assay: Acetylcholinesterase (AChE) small molecule antagonists: colormetric cell-based qHTS assay (AID 1347395; calls by dose curve; further: nearly all actives have a fitted effect of over 30% in size; further: potency means the concentration at half of the fitted maximal effect)
# UniProt P22303, sequence (P22303 whole entry, looked up): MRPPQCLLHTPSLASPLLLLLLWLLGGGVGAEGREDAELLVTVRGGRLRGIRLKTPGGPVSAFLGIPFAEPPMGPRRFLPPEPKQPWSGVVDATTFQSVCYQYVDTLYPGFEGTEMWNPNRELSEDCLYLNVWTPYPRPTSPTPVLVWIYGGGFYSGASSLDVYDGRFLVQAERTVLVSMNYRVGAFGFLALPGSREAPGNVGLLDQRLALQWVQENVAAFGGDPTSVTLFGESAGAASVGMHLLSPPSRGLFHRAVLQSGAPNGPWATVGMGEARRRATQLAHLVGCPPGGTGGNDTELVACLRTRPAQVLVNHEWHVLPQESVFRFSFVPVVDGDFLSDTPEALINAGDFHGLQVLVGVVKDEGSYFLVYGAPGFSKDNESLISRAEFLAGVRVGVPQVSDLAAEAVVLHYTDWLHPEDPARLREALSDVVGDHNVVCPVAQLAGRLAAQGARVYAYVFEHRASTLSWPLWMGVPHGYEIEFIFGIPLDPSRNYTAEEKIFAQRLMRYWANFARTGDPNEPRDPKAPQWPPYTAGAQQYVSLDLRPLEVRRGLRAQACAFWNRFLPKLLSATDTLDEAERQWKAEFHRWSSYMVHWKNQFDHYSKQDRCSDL
# In short: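 Homogeneous whole-cell format. SH-SY5Y cells seeded overnight, dosed with compound (30 min, 37 C, 5% CO2), then given DTNB/acetylthiocholine cocktail for 90 min at 37 C; colorimetric signal.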
# [10] = qHTS assay to identify small molecule antagonists of the estrogen receptor alpha (ER-alpha) signaling pathway using the BG1 cell line (AID 743080; calls by dose curve;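 further: BG1 cells stimulated with 17beta-estradiol alongside compound; on the % scale 0 is the no-effect control and ±100 the full control effect; nearly all actives have a fitted effect of over 25% in size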); settings: BG1Luc4E2 ERE-luciferase antagonist mode, luminescence; activity change, negative = inhibition: at 70.3 µM (top of the series) unless noted
# In short: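 Readout is ONE-Glo luminescence, taken 30 min at room temperature after reagent addition, preceded by a CellTiter-Fluor viability read; BG1-Luc-4E2 cells had received compound and 17beta-estradiol for 21.5 h at 37 C.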
# [11] = A CellTox Green Cytotoxicity Assay to monitor cytotoxicity in HepG2 cells - 24 hour (AID 1224878); further: nearly all actives have a fitted effect of over 45% in size; further: potency means the concentration at half of the fitted maximal effect
# In short: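 Cytotoxicity was tracked as dead-cell DNA fluorescence in HepG2 cells treated with test compounds at 37 C; each time-point value comes from one kinetic series spanning 0, 8, 16, 24, 32 and 40 h.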
# [12] = biological target: Bile acid receptor (Homo sapiens) (UniProt Q96RI1); assay: qHTS assay to identify small molecule agonists of the farnesoid-X-receptor (FXR) signaling pathway (AID 743220; active means well fitted activation curve with a large enough effect in the signal ratio in the repeat runs, not every such curve was filed as active; inconclusive means weak or mixed curves, or effect the other way; the % refers to the signal ratio; further: on the % scale 0 is the no-effect control and ±100 the full control effect); settings: HEK293T FXR-UAS-bla, beta-lactamase FRET ratio, 16 h; activation: at 62.6 µM (top of the series)
# UniProt Q96RI1, sequence (Q96RI1 whole entry, looked up): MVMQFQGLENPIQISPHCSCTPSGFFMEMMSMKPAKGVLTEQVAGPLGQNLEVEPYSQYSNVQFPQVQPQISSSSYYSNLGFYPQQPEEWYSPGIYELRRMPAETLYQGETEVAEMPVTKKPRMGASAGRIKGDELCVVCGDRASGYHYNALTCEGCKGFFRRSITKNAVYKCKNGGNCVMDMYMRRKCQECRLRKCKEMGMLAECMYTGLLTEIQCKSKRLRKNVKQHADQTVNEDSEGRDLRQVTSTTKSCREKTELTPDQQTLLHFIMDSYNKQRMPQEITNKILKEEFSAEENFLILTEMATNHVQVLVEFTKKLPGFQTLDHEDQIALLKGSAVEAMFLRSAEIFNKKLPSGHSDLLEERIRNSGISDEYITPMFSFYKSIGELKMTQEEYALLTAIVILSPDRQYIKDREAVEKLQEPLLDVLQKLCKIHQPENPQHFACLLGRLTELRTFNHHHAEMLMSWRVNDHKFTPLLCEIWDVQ
# In short: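 FXR-UAS-bla HEK 293T cells carrying a UAS-driven beta-lactamase reporter were plated for 5 h at 37C/5% CO2, then exposed to DMSO-dissolved Tox21 10K compounds for 16 h at 37C. A LiveBLAzer B/G FRET substrate was loaded for 2 h at room temperature before fluorescence reading.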
# [13] = A CellTox Green Cytotoxicity Assay to monitor cytotoxicity in HEK293 cells - 8 hour (AID 1224884); further: potency means the concentration at half of the fitted maximal effect; nearly all actives have a fitted effect of over 35% in size
# In short: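 Real-time, in one plate: 600 HEK293 cells/well with dead-cell DNA dye, pinned compound after 5 h, 37 C incubation over 40 h; viable cells give no appreciable fluorescence.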
# [14] = qHTS assay to identify small molecule antagonists of the vitamin D receptor (VDR) signaling pathway - cell viability counter screen (AID 743225); settings: VDR-bla HEK293T viability, CellTiter-Glo luminescence, 16 h; viability change, negative = cytotoxic: at 61 µM (top of the series) unless noted; further: nearly all actives have a fitted effect of over 50% in size; further: potency means the concentration at half of the fitted maximal effect
# In short: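 Same-well multiplex: following 16 h treatment of HEK 293T cells carrying a UAS-driven beta-lactamase reporter with compound and agonist (3 nM final), and a 2 h FRET substrate step, CellTiter-Glo was added and luminescence read after 30 min.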
# [15] = biological target: Cytochrome P450 3A4 (Homo sapiens) (UniProt P08684); assay: Cytochrome P450 Family 3 Subfamily A Member 4 (CYP3A4) small molecule antagonists: luciferase reporter qHTS assay (AID 1671201); further: nearly all actives have a fitted effect of over 50% in size; further: potency means the concentration at half of the fitted maximal effect
# UniProt P08684, sequence (P08684 whole entry, looked up): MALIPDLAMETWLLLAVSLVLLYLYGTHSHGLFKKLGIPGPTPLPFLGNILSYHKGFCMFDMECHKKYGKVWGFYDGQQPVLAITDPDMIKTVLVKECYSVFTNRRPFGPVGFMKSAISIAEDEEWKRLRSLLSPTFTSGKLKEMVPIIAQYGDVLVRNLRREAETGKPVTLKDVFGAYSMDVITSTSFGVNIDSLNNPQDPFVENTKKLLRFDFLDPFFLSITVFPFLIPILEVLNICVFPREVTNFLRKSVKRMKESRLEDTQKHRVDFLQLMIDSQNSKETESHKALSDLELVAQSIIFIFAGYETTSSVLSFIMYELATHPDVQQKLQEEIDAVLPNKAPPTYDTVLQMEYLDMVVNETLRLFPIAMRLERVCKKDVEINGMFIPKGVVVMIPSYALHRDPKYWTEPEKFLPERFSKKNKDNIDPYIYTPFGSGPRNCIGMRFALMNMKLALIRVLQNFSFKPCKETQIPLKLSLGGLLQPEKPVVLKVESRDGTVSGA
# In short: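 Relative luminescence units after 20 min with luciferin detection reagent served as read-out. Beforehand, CYP3A4 turned over a proluciferin substrate for 1 h at room temperature with NADPH regeneration, following 10 min compound preincubation.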
# [16] = qHTS assay for small molecule activators of the heat shock response signaling pathway - cell viability counter screen (AID 743209); settings: HSE-bla HeLa viability, CellTiter-Glo luminescence, 5 h; activity change, negative = cytotoxicity: at 62.6 µM (top of the series); further: nearly all actives have a fitted effect of over 50% in size; further: potency means the concentration at half of the fitted maximal effect
# In short: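 Compounds dissolved in DMSO were added to overnight-plated HSE-bla HeLa cells and left 5 h at 37 C. Cell viability was quantified by luminescence using CellTiter-Glo.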
# [17] = qHTS assay to identify small molecule agonists of the retinoic acid receptor (RAR) signaling pathway (AID 1159553); settings: C3RL4 RARE luciferase reporter, agonist, 6 h; activation: at 73.3 µM (top of the series) unless noted; further: potency means the concentration at half of the fitted maximal effect
# In short: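 In this cell-based screen, 1,000 C3RL4 cells per well were cultured overnight, dosed with test chemicals in DMSO for 6 hr, and assessed for RARE luciferase luminescence.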
# [18] = biological target: Peroxisome proliferator-activated receptor delta (Homo sapiens) (UniProt Q03181); assay: qHTS assay to identify small molecule agonists of the peroxisome proliferator-activated receptor delta (PPARd) signaling pathway (AID 743212; calls by dose curve;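 further: HEK293H cells with PPARd UAS beta-lactamase reporter GeneBLAzer system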; further: potency means the concentration at half of the fitted maximal effect); settings: HEK293H PPARd-UAS-bla, beta-lactamase FRET ratio, 17 h; activation: at 62.6 µM (top of the series) unless noted
# UniProt Q03181, sequence (Q03181 whole entry, looked up): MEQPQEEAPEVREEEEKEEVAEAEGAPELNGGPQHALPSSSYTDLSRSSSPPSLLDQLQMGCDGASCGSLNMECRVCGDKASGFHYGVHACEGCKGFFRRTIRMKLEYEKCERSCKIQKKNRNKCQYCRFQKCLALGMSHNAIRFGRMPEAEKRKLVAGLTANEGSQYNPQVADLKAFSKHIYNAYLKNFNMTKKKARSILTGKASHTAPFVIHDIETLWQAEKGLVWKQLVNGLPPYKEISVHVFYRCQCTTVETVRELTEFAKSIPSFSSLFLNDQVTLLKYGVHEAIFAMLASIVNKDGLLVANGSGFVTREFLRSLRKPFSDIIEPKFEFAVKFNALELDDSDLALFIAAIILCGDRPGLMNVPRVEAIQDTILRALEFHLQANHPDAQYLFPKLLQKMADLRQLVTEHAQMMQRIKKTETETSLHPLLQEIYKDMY
# In short: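 Steps: seed PPARd-bla HEK293H cells; incubate 5 h, 37 C, 5% CO2; add compounds in DMSO; incubate, 37 C; add LiveBLAzer B/G FRET substrate; hold 2 h at room temperature; measure fluorescence.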
# [19] = biological target: Estrogen receptor (Homo sapiens) (UniProt P03372); assay: qHTS assay to identify small molecule agonists of the estrogen receptor alpha (ER-alpha) signaling pathway (AID 743075; calls by dose curve;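 further: HEK293 GripTite cells with ER-alpha and UAS-driven beta-lactamase reporter; on the % scale 0 is the no-effect control and ±100 the full control effect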); settings: HEK293 ER-alpha-UAS-bla, beta-lactamase FRET ratio, 18 h; activation: at 70.1 µM (top of the series) unless noted
# UniProt P03372, sequence (P03372 whole entry, looked up): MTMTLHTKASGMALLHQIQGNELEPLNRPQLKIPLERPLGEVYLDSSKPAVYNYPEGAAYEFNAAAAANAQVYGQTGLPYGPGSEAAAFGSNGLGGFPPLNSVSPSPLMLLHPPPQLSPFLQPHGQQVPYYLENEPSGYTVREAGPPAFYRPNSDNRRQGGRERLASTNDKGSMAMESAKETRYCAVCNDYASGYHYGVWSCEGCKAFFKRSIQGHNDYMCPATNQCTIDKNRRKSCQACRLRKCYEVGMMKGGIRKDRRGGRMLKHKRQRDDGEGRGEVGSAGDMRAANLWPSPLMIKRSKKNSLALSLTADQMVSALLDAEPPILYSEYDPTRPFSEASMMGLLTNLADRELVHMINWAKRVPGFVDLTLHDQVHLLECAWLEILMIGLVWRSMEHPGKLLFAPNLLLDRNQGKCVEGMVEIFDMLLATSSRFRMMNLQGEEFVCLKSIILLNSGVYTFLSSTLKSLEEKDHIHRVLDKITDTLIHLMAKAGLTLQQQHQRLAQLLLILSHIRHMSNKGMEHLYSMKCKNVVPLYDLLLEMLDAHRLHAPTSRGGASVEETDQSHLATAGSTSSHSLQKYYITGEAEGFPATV
# [20] = qHTS assay to identify small molecule antagonists of the androgen receptor (AR) signaling pathway - cell viability counter screen (AID 743033; further: potency means the concentration at half of the fitted maximal effect; nearly all actives have a fitted effect of over 45% in size)
# Tags describe the fitted curve by direction and shape or compound fluorescence and quenching.
smiles,measurement,setting,value
CCCC[N+](CCCC)(CCCC)CCCC,Potency,[1],inactive
same,Potency,[2],"inconclusive: 15.5 µM [cytotoxic, full curve]"
same,Potency,[3],"inconclusive: 19.5 µM [cytotoxic, partial curve]"
same,Potency,[4],"inconclusive: 43.6 µM [inhibitor, partial curve, poor fit]"
CC(=O)CC(c1ccc(Cl)cc1)c1c(O)c2ccccc2oc1=O (stereo not given),Potency,[5],inactive
same,"activity change, negative = inhibition",[6],inconclusive: 1.11%
O=C(O)CCl,Potency,[3],"inconclusive: 43.6 µM [cytotoxic, partial curve, poor fit]"
same,Potency,[6],"inconclusive: 26.3 µM [falling, partial curve, poor fit]"
CCNc1nc(NCC)nc(SC)n1,Potency,[2],inactive
same,Potency,[7],inactive
same,Potency,[8],"inconclusive: 54.5 µM [activator, partial curve, poor fit]"
CNC(=O)/C=C(\C)OP(=O)(OC)OC,Potency,[9],active: 39.9 µM
CC(C)CC#N,"activity change, negative = inhibition",[10],inconclusive: 1.97% [at 95 µM]
same,Potency,[11],inactive
same,Potency,[7],"inconclusive: 70.2 µM [cytotoxic, single point]"
same,Potency,[8],"inconclusive: 62.6 µM [activator, partial curve, poor fit]"
CN(C)c1nc(=O)n(C2CCCCC2)c(=O)n1C,Potency,[10],inactive
same,Potency,[12],inactive
same,Potency,[13],"inconclusive: 61.6 µM [activator, single point]"
CC(=O)C1CCOC1=O (stereo not given),Potency,[12],inactive
same,Potency,[14],"inconclusive: 14.4 µM [cytotoxic, partial curve, poor fit]"
same,Potency,[15],inactive
CCC1(c2ccccc2)C(=O)NC(=O)NC1=O,Potency,[8],inactive
Nc1cc2c3c(c1)C(c1ccccc1)=N[C@@H](NC(=O)c1cccnc1)C(=O)N3CC2,"activity change, negative = inhibition",[10],inconclusive: -23.9%
same,Potency,[14],inactive
same,Potency,[15],active: 11.2 µM
N#CCCCCC#N,Potency,[5],inactive
same,Potency,[14],inactive
C[N+](C)(C)CC(=O)[O-],Potency,[1],"inconclusive: 33.5 µM [rising, partial curve, poor fit]"
same,Potency,[14],inactive
same,Potency,[15],inactive
[O-][Cl+3]([O-])([O-])O,Potency,[16],inactive
same,Potency,[14],"inconclusive: 57.6 µM [cytotoxic, single point]"
same,Potency,[8],inactive
COC(=O)C1(O)c2ccccc2-c2ccccc21,Potency,[17],inactive
same,Potency,[11],inactive
same,Potency,[8],inconclusive: 54.5 µM [activator]
same,Potency,[4],"inconclusive: 38.9 µM [inhibitor, partial curve, poor fit]"
same,Potency,[15],"inconclusive: 14.2 µM [inhibitor, full curve]"
C[C@]12CC[C@H]3[C@@H](CC=C4C[C@@H](O)CC[C@@]43C)[C@@H]1CC[C@@H]2O,Potency,[5],"inconclusive: 0.668 µM [falling, single point]"
same,Potency,[17],inactive
Cc1ccc([N+](=O)[O-])cc1C,Potency,[14],"inconclusive: 12.1 µM [cytotoxic, single point]"
O=C(Cl)C(Cl)Cl,Potency,[6],inactive
O=C1NC(=O)C(=O)C(=O)N1,Potency,[12],inactive
ClC(Cl)(Cl)Cl,Potency,[17],"inconclusive: 67.4 µM [activator, single point]"
CC12CC1(C)C(=O)N(c1cc(Cl)cc(Cl)c1)C2=O (stereo not given),Potency,[15],"inconclusive: 71 µM [inhibitor, partial curve, poor fit]"
O=C1CC[C@@]2(O)[C@H]3Cc4ccc(O)c5c4[C@@]2(CCN3CC2CC2)[C@H]1O5,max response,[3],inactive: 3.94%
Nc1cnn(-c2ccccc2)c(=O)c1Cl,Potency,[18],"inconclusive: 61.5 µM [rising, single point]"
same,Potency,[8],inactive
same,Potency,[15],inactive
CCN[C@@H](C)Cc1cccc(C(F)(F)F)c1,Potency,[19],inactive
same,Potency,[16],"inconclusive: 2.98 µM [cytotoxic, single point]"
same,Potency,[17],inactive
same,Potency,[7],inactive
same,Potency,[8],"inconclusive: 0.0084 µM [activator, partial curve, poor fit]"
same,Potency,[9],inactive
CC(C)(C)NCC(O)c1cc(Cl)c(N)c(Cl)c1 (stereo not given),Potency,[5],active: 1.33 µM
same,Potency,[20],"inconclusive: 9.52 µM [cytotoxic, partial curve, poor fit]"
same,Potency,[1],inconclusive: 29.8 µM [cytotoxic]
same,max response,[3],inactive: 2.03%
same,Potency,[13],"inconclusive: 0.756 µM [activator, partial curve]"
same,Potency,[7],active: 11.9 µM
CCC[N+](CCC)(CCC)CCC,Potency,[18],inactive
same,Potency,[11],"inconclusive: 7.76 µM [activator, partial curve, poor fit]"
same,Potency,[9],"inconclusive: 79.6 µM [inhibitor, partial curve]"
